What all share (details): remark: other sources report otherwise
Assay [1] concerns the target T1, properdin (from normal human plasma or serum) (human), P27918.
T1 chain: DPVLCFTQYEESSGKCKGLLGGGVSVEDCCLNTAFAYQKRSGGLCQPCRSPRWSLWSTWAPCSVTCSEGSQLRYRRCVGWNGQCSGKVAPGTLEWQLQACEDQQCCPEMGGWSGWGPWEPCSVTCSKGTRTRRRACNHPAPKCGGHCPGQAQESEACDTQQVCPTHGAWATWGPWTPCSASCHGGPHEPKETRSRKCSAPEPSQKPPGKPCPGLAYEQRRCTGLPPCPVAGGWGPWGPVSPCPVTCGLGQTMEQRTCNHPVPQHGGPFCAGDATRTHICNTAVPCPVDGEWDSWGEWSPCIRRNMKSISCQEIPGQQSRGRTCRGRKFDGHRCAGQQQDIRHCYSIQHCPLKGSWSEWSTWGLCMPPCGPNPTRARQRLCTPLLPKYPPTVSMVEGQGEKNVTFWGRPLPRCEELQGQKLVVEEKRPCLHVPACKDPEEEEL
Nature of the assay: SEC; 200 ug purified properdin in PBS on a Phenomenex BioSep SEC s4000 column, 0.3 ml/min; properdin in the fractions quantified by sandwich ELISA; oligomer ratio from summed fractions.

Assay [2] deals with T1, properdin (from normal human plasma or …). Nature of the assay: SEC; normal human serum diluted to 4 ug or 150 ng properdin with 1% BSA and 20 mM EDTA in PBS, same column; properdin in the fractions quantified by sandwich ELISA; oligomer ratio from summed fractions.
The target is the same in assay [3]. Described as above.
Assay [4] addresses T2, neutrophil-derived properdin (human (endogenous in neutrophils of donors)), P27918.
T2 chain: T1 chain
Nature of the assay: SEC; supernatant of PMA-activated neutrophils diluted to 4 ug or 150 ng properdin with 1% BSA and 20 mM EDTA in PBS, same column; properdin in the fractions quantified by sandwich ELISA; oligomer ratio from summed fractions.

Values joined by “and” are separate entries in the source; they are usually repeats but may differ in a detail not shown here. Equal entries are not always repeated.

B1: properdin (from normal human plasma or serum), P27918 28-469 (natural protein)
chain: T1 chain
As for B1, in assay [1], the percent of properdin as P2 (P4:P3:P2 ratio) is 25%; the percent of properdin as P3 (P4:P3:P2 ratio) amounted to 57%; the percent of properdin as P4 (P4:P3:P2 ratio) was found to be 18%; the stoichiometry N is 4 and 3 and 2. Moreover, in assay [2], the percent of properdin as P2 (P4:P3:P2 ratio) was 27%; the percent of properdin as P3 (P4:P3:P2 ratio) was 52%; the percent of properdin as P4 (P4:P3:P2 ratio) turned out to be 20%; the stoichiometry N was 4 and 3 and 2. Further, in assay [3], the percent of properdin as P2 (P4:P3:P2 ratio) came out at 29%, the percent of properdin as P3 (P4:P3:P2 ratio) is 43% and the percent of properdin as P4 (P4:P3:P2 ratio) was 29%.

B2: neutrophil-derived properdin, P27918 28-469 (natural protein)
chain: T1 chain
As to B2, in assay [4], the percent of properdin as P2 (P4:P3:P2 ratio), average of 5 donors worked out at 48%; the percent of properdin as P3 (P4:P3:P2 ratio), average of 5 donors was 34%; the percent of properdin as P4 (P4:P3:P2 ratio), average of 5 donors came out at 18%; the stoichiometry N is 4 and 3 and 2.

For the origin of these results see paper PMC9880526.
